Experimental data: the RNAGym collection of RNA variant scans (doi:10.1073/pnas.2313332121)
This sample is rich in variants without activity.

B1: TPR 5TU (parent)
chain: GGAUCUUCUCGAUCUAACAAAAAAGACAAAUCUGCCACAAAGCUUGAGAGCAUCUUCGGAUGCAGAGGCGGCAGCCUUCGGUGGCGCGAUAGCGCCAACGUUCUCAACUAUGACACGCAAAACGCGUGCUCCGUUGAAUGGAGUUUAUCAUG

Variants of: B1
Assay: polymerase ribozyme fitness, log enrichment relative to wild type (log ratio); higher = more active; in vitro selection for triplet polymerase activity
Procedure, shortened: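 The heterodimeric triplet polymerase ribozyme's subunits were each mutagenized into PCR-built libraries and transcribed. Every library was selected once, in triplicate, by annealing with a biotinylated primer, the partner subunit and triplets, incubating frozen at −7 °C, gel-excising extended constructs, capturing on streptavidin beads and running RT-PCR. Input and output libraries were Illumina-sequenced, with genotypes kept only at ≥10 input reads and ≥1 read per output. Fitness, from inverse-variance-weighted replicate averages, is the base-2 logarithm of genotype enrichment over wild-type enrichment.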

| Variant | polymerase ribozyme fitness (log ratio) |
| --- | --- |
| GGAUCUUCUCGAUCUAACAAAAAAGUCAAAUCUGCCACAAAGCUUGAGAGCCUCUUCGGAUGCAGAAGCGGCAGCCUUCGGUGGCGCGAUAGCCCCAACGUUCUCAACUAUGAAACGCAAUACGCGUGCUCCGUUGAAUCGAGUUUAUCAUG [A26U A52C G67A G94C C114A A121U G140C] | ≤ -4.2 |
| GGAUCUUCUCGAUCUAACAAAAAAGUCAAAUCUGCCACAAAGCUUGUGAGCAUCUUCGGAUGCAGAGCCGGCAGCCUUCGGUGGCCCGAUAGCGCCAACGUUCUCAACUAUGUCACGCAAAGCGCGUGCUCCGUUGAAUGGAGUUUAUCAUG [A26U A47U G68C G86C A113U A122G] | ≤ -4.2 |
| GGAUCUUCUCGAUCUAACAAAAAAGUCAAAUCUGCCACAAAGCUUGAGAGCCUCUUCGGAUGCAGAGGCGGCAGCCUUCGGUGGCGCCAUAGCGCCAACGUUCUCAACUAUGACACGCAAAACGCGUGCUCCGUCGAAUGGAGUUUAUCAUG [A26U A52C G88C U135C] | ≤ -4.2 |
| GGAUCUUCUCGAUCUAACAAAAAAGUCAAAUCUGUCACAAAGCUUGAGAGCAUCUUCGGAUGCAGAGGCGGCAGCCUUCGGUGGCGCGAGAGCGCCAACGUUCUCAACUAGGACACGCAAAACGCGUGCUCCGUUGAAUGGAGUUUAUCAUG [A26U C35U U90G U111G] | ≤ -4.2 |
| GGAUCUUCUCGAUCUAACAAAAAAGUCAAAUCUGCCACAAAGCUUGAGCGCAGCUUCGGAUGCAGAGGCGGCAGGCUUCGGUGCCGCGAUAGCGCCAACGUUCUCAACUAUGUCACGCAAAACGUGUGCUCCGUUGAAUGGAGGUUAUCAUG [A26U A49C U53G C75G G84C A113U C125U U144G] | ≤ -4.2 |
| GGAUCUUCUCGAUCUAACAAAAAAGUCAAAUCUGCCACAAAGCUUGAGAGCUUCUUCGGAUGCAGAGGCGGCAGCCUUCGGUGGCGCGAUAGCGCCAACGUUCUCAACUAUGACACGCAAAACGCGUGCUCCGUAGAAUGGAGUUUAUCAUG [A26U A52U U135A] | -2.83 |
| GGAUCUUCUCGAUCUAACAAAAAAGUCAAAUCUGCCACAAAGCUUGAGAGCCUCUUCGGAUGCAGAGGCGGCAGCCUUCGGCGGCGCGAUAGCGCCAACGUUCUUAACUAUGACACGCAAAACGCGUGCUCCGUUGAAUGGAGUUUAUCAUG [A26U A52C U82C C105U] | ≤ -4.2 |
| GGAUCUUCUCGAUCUAACAAAAAAGUCAAAUCUGCCACAAAGCUUGAGAGCAUUUUGAGAUGCAGAGACGGCAGCCUUCGGUGGCACGAUAGCGCCAACGUUCUCAACUAUGACACUCAAACGGCGUGGUCCGUUGAAUGGAGUUUAUCAUG [A26U C54U C57G G58A G68A G86A G117U A122C C123G C129G] | ≤ -4.2 |
| GGAUCUUCUCGAUCUAACAAAAAAGUCAAAUCUGCCACAAAGCUUGAGCGCAGCUUCGGAUGCAGAGACGGCAGCCUUCGGUGGCGCGAUAGCGCAAACGUUCUCAACUAUGACACGCAAAACGCGUGCUCCGUUGAAUGGAGUUUAUCAUG [A26U A49C U53G G68A C96A] | ≤ -4.2 |
| GGAUCUUCUCGAUCUAACAAAAAAGUCAAAUCUGCCACAAAGCUUGAGAGCAUCUUCGGAUGCAGAGGCGGCUUCCUUCGGUGGCGCGAUAGCGCAAACGUUCUCAACUAUGACACGCAAAACGCGUGCUCCGUUGAAUGGAGUUUAUCAUG [A26U A73U G74U C96A] | ≤ -4.2 |
| GGAUCUUCUCGAUCUAACAAAAAAGUCAAAUCUGCCACAAAGCUUGAGGACAUCAUCGGAUGCAGAGGCGGCAGCCUUCGGUGGCGCGAUAGCGCCAACGUUCUCAACUAUGACACGCAAAACGCGUGCUCCGUUCAAUGGAGUUUAUCAUG [A26U A49G G50A U55A G136C] | ≤ -4.2 |
| GGAUCUUCUCGAUCUAACAAAAAAGUCAAAUCUGCCAGAAAGCUUGAGAGCAUCUUUGGAUGCAGAGGCGGCAGCCUUCGGUGGCGCGAUAGCGCCAACGUUCUCAACUAUGACACGCGAAACGCGUGCUCCGUUGAAUGGAGUUUAUCCUG [A26U C38G C57U A119G A150C] | ≤ -4.2 |
| GGAUCUUCUCGAUCUAACAAAAAAGUCAAAUCUGGCAUAAAGCUUGAGCCCAUCUUCGGAUGCAGAGGCGGCAGCUUUCGGUGGCGCGAUAUGGCCAACGUUCUCAACUAUGACACGCUGAACGCGUGCUCCGUUGAAUGGAGUUUAUCAUG [A26U C35G C38U A49C G50C C76U G92U C93G A119U A120G] | ≤ -4.2 |
| GGAUCUUCUCGAUCUAACAAAAAAGUCAAAUCUGCCACAAAGCUUGAGCGUAUCUUCGGAUGCAGAGGCGGCAGCCUUCGGUGGCGCGAUUGCGCCAACGUUCUCAACUAUGACACGCAAAACGCGUACUCCGUUGAAUGGAGUUUAUCAUG [A26U A49C C51U A91U G128A] | ≤ -4.2 |
| GGAUCUUCUCGAUCUAACAAAAAAGUCAAAUCUGGCACAAAGCUUGAGAGCAUCUUCGUCUGCAGAGGCGGCAGCAUUCGGUGGCGCGAUAGCGCCAACGUUCUCAACUAUGACACGCAAAACGCGUGCUCCGUUUAAUGGAGUUUAUCAUG [A26U C35G G59U A60C C76A G136U] | ≤ -4.2 |
| GGAUCUUCUCGAUCUAACAAAAAAGUCAAAUCUGCCACAAAGCUUGGGAGCAACUUCGGAUGCAGAGGCGGCCGCCUUCGGUGGCGCGAUAACGCCAACGUUCUCAACUAUGACACGCAAAACGCGUGCUCCGUUGAAUGGAGUUUAUCAUG [A26U A47G U53A A73C G92A] | ≤ -4.2 |
| GGAUCUUCUCGAUCUAACAAAAAAGUCAAAUCUGGCACAAAGCUUGAGAGCGUCUUCGGAUGCAGAGGCGGCAGCCCUCUGUGGCGCGAUAGCGCCAACGUUCUCAACUAUGACACGCAAAACGCGUGCUCCGUUGAAUGGAGUUUAUCAUG [A26U C35G A52G U77C G80U] | ≤ -4.2 |
| GGAUCUUCUCGAUCUAACAAAAAAGUCAAAUCUGCCACAAAGCUUGAGAGCAUCUUCGGAUGCAGAGGCGGCAGCCUUCGGUGGCGCGAUAGCGCCAACGUUCUCAACUAUGACACGCAAAGCGCGUGCUACGUUGAAUGGAGUUUAUCAUG [A26U A122G C131A] | -3.89 |
| GGAUCUUCUCGAUCUAACAAAAAAGUCAAAUCUGCCACAAAGCUUGAGAGGUUCUUCGGAUGCAGAGGCGGCAGCAUUCGGUGGCGCGAUGGCGCCUACGUUCUCAACUAUGACACGCAAAACGCGUGCUCCGUUGAAUGGAGUAUAUCAUG [A26U C51G A52U C76A A91G A97U U145A] | ≤ -4.2 |
